# Laboratory results as given in publication PMC6919601, “Identification of Plasmodium dipeptidyl aminopeptidase allosteric inhibitors by high throughput screening” (PLoS ONE, 2019).
# Screen size: about 110,000 compounds; about 230 (0.21%) showed an effect of 50% or more. This is one part of the list.
# Molecular target: DPAP1 (Plasmodium falciparum, UniProt Q8IIJ9)
# Experiment: primary screen, percent inhibition; read by cleavage of a fluorogenic dipeptide substrate; higher = more effect of the substance
# Set-up: species or system P. falciparum D10 trophozoite lysates; single well
# 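Also: 30 min substrate incubation versus DMSO and 10 µM JCP410 controls.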
# Sequence of DPAP1 (Q8IIJ9 whole entry, looked up): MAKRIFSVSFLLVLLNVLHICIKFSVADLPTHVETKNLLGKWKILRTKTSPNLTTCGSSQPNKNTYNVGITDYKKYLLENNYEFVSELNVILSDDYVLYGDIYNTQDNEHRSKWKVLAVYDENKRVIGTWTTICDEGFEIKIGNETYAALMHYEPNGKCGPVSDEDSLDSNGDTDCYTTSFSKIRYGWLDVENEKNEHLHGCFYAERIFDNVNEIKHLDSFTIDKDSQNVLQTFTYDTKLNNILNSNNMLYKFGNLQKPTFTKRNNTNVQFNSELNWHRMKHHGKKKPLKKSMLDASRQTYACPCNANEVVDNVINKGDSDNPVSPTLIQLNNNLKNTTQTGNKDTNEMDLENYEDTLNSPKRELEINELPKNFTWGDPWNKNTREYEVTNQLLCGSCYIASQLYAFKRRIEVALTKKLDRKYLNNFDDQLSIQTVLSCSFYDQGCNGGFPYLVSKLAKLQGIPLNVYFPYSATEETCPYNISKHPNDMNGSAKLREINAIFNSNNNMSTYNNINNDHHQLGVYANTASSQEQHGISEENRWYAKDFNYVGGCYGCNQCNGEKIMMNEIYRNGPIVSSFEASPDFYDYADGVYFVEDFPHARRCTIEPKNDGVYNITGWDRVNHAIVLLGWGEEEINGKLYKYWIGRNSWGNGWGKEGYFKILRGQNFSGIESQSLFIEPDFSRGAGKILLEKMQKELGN
row,SMILES,% Inhibition @ 10 uM [%]
1,O=C(O)c1ccc(O)nc1,0.883
2,Clc1cccc(CN2CCN(c3ccccc3)CC2)c1Cl,-3.65
3,Cc1ccc2nc(-c3ccc(NC(=O)c4ccoc4C)cc3)sc2c1,-3.24
4,C=CCNC(=O)c1c(NC(=O)c2ccco2)sc2c1CCCC2,0.528
5,COc1ccc2cc(C3C4=C(CC(C)(C)CC4=O)OC4=C3C(=O)CC(C)(C)C4)c(O)nc2c1,2.26
6,CCOc1ccc(-c2cc(NC(=O)Cc3noc4ccc(C)cc34)on2)cc1,-2.27
7,OCC1CCCN1Cc1c(F)cccc1F (centres unmarked),-6
8,CC1=NN(C(=O)c2ccc(COc3ccc(Cl)cc3)o2)C(O)(C(F)(F)F)C1 (centres unmarked),4.03
9,CCOC(=O)N1CCN(C(=O)c2cnn(-c3ccccc3)c2NC(=O)c2ccccc2F)CC1,-1.24
10,COCCCN1C(=O)/C(=C\c2ccc(OC)cc2OC)C(C(=O)OC)=C1C,-5.26
11,Cc1[nH]c2c(Cl)ccc(Cl)c2c1CCNC(=O)Cn1nc(C)c2ccccc2c1=O,2.18
12,COc1cc(OC)cc(-n2nnc(-c3nsc(NC(=O)c4cccs4)n3)c2C)c1,-0.656
13,Cc1cc(Br)ccc1OCC(=O)Nc1cccc(C#N)c1,0.161
14,Cc1ccc(NC(=O)c2cnc(Nc3nc4ccccc4o3)nc2C)cc1,4.31
15,O=C(CC1(O)C(=O)Nc2ccc(Br)cc21)c1ccc2c(c1)CCCC2 (centres unmarked),-7.62
16,CCOCCCNC(=O)c1ccc(NC(C)=O)cc1,-4.14
17,N#CC1=C(N)Oc2[nH]nc(-c3ccc(F)cc3)c2C1c1cccnc1 (centres unmarked),-3.77
18,NC(=O)CSc1nc(-c2ccccc2)nc2c1Cc1ccccc1O2,-2.92
19,COC(=O)c1ccc(NC(=O)COc2ccccc2)cc1,3.01
20,Cc1noc(/C=C/c2cccs2)c1S(=O)(=O)N1CCC(C(=O)Nc2ccncc2)CC1,-1.28
21,CCOc1ccccc1CNCc1c(C(=O)O)n(Cc2ccccc2C)c2ccccc12,0.49
22,CCOc1ccc(N2C(=O)CC(N3CCCC4CCCCC43)C2=O)cc1 (centres unmarked),4.83
23,Cc1ccccc1C(=O)n1nnc2ccccc21,7.49
24,Cc1ccc(NC(=O)Cn2cnc3c(=O)n(C)c(=O)n(C)c32)cc1Cl,-1.61
25,CCn1c(=O)c2sccc2n2c(CCCC(=O)N3CCN(c4ccccn4)CC3)nnc12,-0.519
26,Cc1ccc(C(=O)N/C(=C\c2cccs2)C(=O)NCc2ccccc2F)cc1C,2.46

row,SMILES,% Inhibition @ 10 uM [%]
1,Cc1ccc(CNC(=O)Cn2c(=O)c3sccc3n(Cc3ccccc3F)c2=O)cc1,2.4
2,CCn1c(SCC(=O)NC2CCCC2)nc2c(c1=O)SCC2,0.8
3,COc1ccc(CCNS(=O)(=O)c2c(C)cc(C)cc2C)cc1OC,0.528
4,Fc1ccc(CN2CCN(c3ncnc4onc(-c5ccc(Cl)cc5)c34)CC2)cc1,4.28
5,CCOCCCNC(=O)CCCn1nc(C)n2ccnc2c1=O,-3.34
6,COCCNC(=O)c1cc2c(s1)-c1ccccc1S(=O)(=O)C2,-3.96
7,CCO/C(O)=C1/C(C)=Nc2nc(SCc3ccccc3F)nn2C1c1ccc(OC)cc1 (centres unmarked),-6.08
8,CN(Cc1ccccc1)C(=O)COc1ccccc1,7.09
9,CC1(C)CC(=O)C(/C=N/c2ccc(Cl)cc2C(F)(F)F)=C(O)C1,3.92
10,CSc1ccc(Cl)c(C(=O)Nc2nc3ccccc3n2C)c1,-6.65
11,CC1CCCCN1Cc1nc2c(c(=O)n(C)c(=O)n2C)n1CC(=O)c1ccccc1 (centres unmarked),-4.14
12,CS(=O)(=O)C1=NN2C(=N)/C(=C\c3ccc(Cl)cc3)C(=O)N=C2S1,-5.27
13,CC(=O)NCc1ccc(S(=O)(=O)N(C)C)cc1,-6.94
14,CCOCCCNC(=O)c1ccc(OCC)cc1,2.44
15,CN(Cc1ccccc1)C(=O)C(CC1CCCCC1)C(=O)NCC#N (centres unmarked),-3.49
16,O=C(CCc1ccccc1)Nc1cc(C(F)(F)F)ccc1Cl,-0.273
17,CC(C)CC(=O)/N=C1/SC2CS(=O)(=O)CC2N1CCc1ccccc1 (centres unmarked),3.81
18,N#C/C(=C/c1ccc(F)cc1)c1nc2ccccc2[nH]1,-2.41
19,O=c1c2sccc2nc(SCc2cc(=O)n3cc(Cl)ccc3n2)n1Cc1ccccn1,-4.01
20,CCCN(CCC)C(=O)CSc1nc2ncccc2o1,-0.441
21,COc1ccc(OC)c(C2C(C(=O)c3ccccc3)=C(O)C(=O)N2c2cccnc2)c1 (centres unmarked),6.22
22,COc1ccc(C2C(C#N)=C(N)OC3=C2C(=O)CC(C)(C)C3)cc1O (centres unmarked),1.66
23,Cc1cc(O)n2nc(-c3ccc(Cl)cc3)cc2n1,-1.92
24,N#Cc1c(NC(=O)c2cccnc2Cl)sc2c1CCC2,0.777
25,Cc1sc(NC(=O)C2CCCC2)c(C#N)c1C,-4.41
26,COc1ccc(C2C3=C(O)CC(C)(C)CC3=NC3=C2C(=O)CC(C)(C)C3)cc1O (centres unmarked),4.45

row,SMILES,% Inhibition @ 10 uM [%]
1,Clc1ccc(-n2ncc3c(N4CCC5(CC4)OCCO5)ncnc32)cc1,1.26
2,CC(C)Oc1ccc(C2CC(=O)NC3=C2C(=O)CCC3)cc1 (centres unmarked),-1
3,CCN(CC)c1ccc(NC(=O)Cc2ccc(F)cc2)cc1,4.44
4,COc1ccc(-c2c3c(nc4sc5c(O)nc(C)nc5c24)CCC3)cc1,3.5
5,Cc1ccccc1NC(=O)c1cccc(N2C(=O)C3C4C=CC(C4)C3C2=O)c1 (centres unmarked),-5.23
6,O=C(Cn1nc(-c2ccc(Cl)cc2)c2ccccc2c1=O)NCCN1CCOCC1,-8.79
7,CC(=O)c1ccccc1-c1ccccc1C(=O)O,2.4
8,CCN(CC)C(=O)Nc1cc(NC(=O)N(CC)CC)c(C)nc1C,1.84
9,Cc1ccc2cc(C#N)c(O)nc2c1,5.2
10,O=C(Nc1cccc2ccccc12)NC(c1ccccc1)c1ccccc1,-5.62
11,CCOc1ccc2nc(NC(=O)C3CCC3)sc2c1,-13.3
12,N#Cc1nc(/C=C/c2ccc(F)cc2)oc1NCCCn1ccnc1,-0.808
13,O=C(N/C(C(=O)N1CCOCC1)=C(\SCc1ccccc1)c1ccccc1)c1ccccc1,-3.98
14,COc1cc(C2CC(=O)Oc3c2c(=O)oc2ccccc32)cc(OC)c1OC (centres unmarked),-2.19
15,CC(=O)Nc1ccc(N2C(=O)C3C4CCC(C4)C3C2=O)cc1 (centres unmarked),-0.795
16,COc1cc2cc(-c3ccccc3)nc(C)c2cc1OC,4.55
17,CCCS(=O)(=O)N1CCCC(C(=O)NCCCN(CC)CC)C1 (centres unmarked),6.32
18,CC(C)CN1C(=O)c2ccccc2C(C(=O)N2CCN(C3CCCCC3)CC2)C1c1cccs1 (centres unmarked),1.97
19,CCOC(=O)N1CCC2(CC1)OC(=O)C(C)=C2C(=O)NCc1ccc2c(c1)OCO2,-1.58
20,COc1ccc(NC(=O)C(C)(C)C)cc1,-0.0372
21,CC1(C)CC(=O)C2=C(C1)OC1=C(C(=O)CC(C)(C)C1)C2c1cccs1,-0.127
22,Cc1cccc(CCNC(=O)CNS(=O)(=O)c2ccc3nc(C)sc3c2)c1,2.57
23,CC1=CC2=NC(=O)/C(=C\c3ccc(OCCOc4ccccc4C)c(Cl)c3)C(=N)N2O1,-9.06
24,COc1cc(OC)c(OC)cc1CN1CCN(Cc2cccc(F)c2)CC1,-1.65
25,CC(NC(=O)c1sc2nc3c(cc2c1N)N1CCC3CC1)c1ccccc1 (centres unmarked),-3.03
26,Cc1ccc(C2CC(=O)N3CN(C4CCCCC4)CSC3=C2C#N)cc1 (centres unmarked),25.9

row,SMILES,% Inhibition @ 10 uM [%]
1,O=C(Nc1ccccc1Nc1cc(-c2ccccc2)nn1-c1ccccc1)c1ccccc1,-4.35
2,COc1cc(C2CC(c3c(O)cc(C)oc3=O)=Nc3ccccc3S2)cc(OC)c1O (centres unmarked),1.54
3,CCN(CC)CCNC(=O)Nc1cn(C)c(=O)c2ccccc12,2.99
4,CC(C)(O)C1Cc2cc3ccc(=O)oc3cc2O1 (centres unmarked),0.467
5,CCn1c(/C=C/c2cccs2)nc2ccccc2c1=O,-0.872
6,O=C1c2cccnc2C(=O)N1CCc1ccc(S(=O)(=O)N2CCC(Cc3ccccc3)CC2)cc1,-3.01
7,COCCCNC(=O)c1nnc(-c2cccnc2)o1,-2.23
8,O=C(CN1C(=O)c2ccccc2Sc2ncccc21)N1CCCCC1,2.06
9,COc1ccccc1C(=O)Nc1ccc(C)cc1C,-1.61
10,Cc1cc(O)n2c(-c3ccccc3C)nnc2n1,-5.92
11,O=C(CSc1ncccn1)Nc1cc(C(F)(F)F)ccc1Cl,-3.98
12,COc1ccc(N2CCN(Cc3ccoc3)CC2)cc1,-2.81
13,COc1ccc2c(=O)c(Oc3ccccc3Br)c(C(F)(F)F)oc2c1,25.4
14,O=C(NCC1CCCO1)c1cc2c(Cl)nc3ccccc3c2s1 (centres unmarked),-3.99
15,COc1ccc(-c2nc(CSCC(=O)N3CCN(C)CC3)c(C)o2)cc1OC,-1.27
16,COc1ccc2c(c1)c1c(c(=O)n(Cc3ccccc3)c(=O)n1C)n2C,-5.37
17,c1coc(CSc2nn3nnnc3c3ccccc23)c1,4.1
18,CN(CC(=O)N1CCCCCC1)S(=O)(=O)c1ccc2[nH]c3c(c2c1)CCCC3,-2.22
19,CC1CCN(C(=O)c2ccc(N3C(=O)C4C5C=CC(C5)C4C3=O)cc2)CC1 (centres unmarked),-5.58
20,COc1cc(NC(=O)c2cnn3c2NC(c2cccs2)CC3C(F)(F)F)c(OC)cc1Cl (centres unmarked),-0.67
21,CCCCCCCCc1nnc(NC(=O)c2ccccc2)s1,-4.08
22,N#Cc1c2n(c3c(O)ncnc13)CCCC2,-2.51
23,Cc1ccc2c(c1)-c1c(cnn1CC(=O)N1CCC(N3CCCCC3)CC1)CO2,-8.2
